Source: publication PMC6919601, “Identification of Plasmodium dipeptidyl aminopeptidase allosteric inhibitors by high throughput screening” (PLoS ONE, 2019)
About 230 (0.21%) of roughly 110,000 compounds showed an effect of 50% or more. The list shows a part of the results.
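Further: 30 min substrate incubation versus DMSO and 10 µM JCP410 controls.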

These compounds were tested against DPAP1 (Plasmodium falciparum, UniProt Q8IIJ9) (assay: primary screen, percent inhibition; read by cleavage of a fluorogenic dipeptide substrate; higher = more effect of the substance).
Sequence of DPAP1 (Q8IIJ9 whole entry, looked up): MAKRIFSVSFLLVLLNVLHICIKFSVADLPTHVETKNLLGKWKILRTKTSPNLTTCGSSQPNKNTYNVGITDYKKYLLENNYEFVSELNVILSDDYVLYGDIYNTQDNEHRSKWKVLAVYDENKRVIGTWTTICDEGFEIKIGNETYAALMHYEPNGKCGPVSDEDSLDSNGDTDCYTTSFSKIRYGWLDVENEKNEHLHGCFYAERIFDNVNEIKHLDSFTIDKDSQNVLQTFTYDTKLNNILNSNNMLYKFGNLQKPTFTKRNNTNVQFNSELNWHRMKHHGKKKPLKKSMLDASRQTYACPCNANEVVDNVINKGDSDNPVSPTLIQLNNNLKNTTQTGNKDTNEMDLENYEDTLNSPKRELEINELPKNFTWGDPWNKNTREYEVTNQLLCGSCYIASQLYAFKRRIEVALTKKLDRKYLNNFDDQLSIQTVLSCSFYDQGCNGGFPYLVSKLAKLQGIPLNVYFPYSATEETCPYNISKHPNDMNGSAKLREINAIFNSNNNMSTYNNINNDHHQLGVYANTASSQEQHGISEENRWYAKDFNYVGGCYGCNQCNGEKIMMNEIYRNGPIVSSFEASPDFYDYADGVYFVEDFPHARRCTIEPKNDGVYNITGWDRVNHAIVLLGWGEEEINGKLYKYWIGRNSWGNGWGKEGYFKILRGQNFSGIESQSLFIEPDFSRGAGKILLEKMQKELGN
Design: species or system P. falciparum D10 trophozoite lysates; single well
In the case of `O=[N+]([O-])c1ccc(N2CCOCC2)c2nonc12`, the “% Inhibition @ 10 uM” value is reported as 8.56%. With `CCOC(=O)c1c(C)c(-c2ccccc2)n(CC(=O)N2CCN(C(C)CC)CC2)c1C` (stereo not shown) the “% Inhibition @ 10 uM” value was 6.38%. `CC(C)OC(=O)c1cc2cc(Br)cc(Br)c2oc1=O` was tested, and the “% Inhibition @ 10 uM” value was 5.37%. For `Cc1cc(F)ccc1NC(=O)c1c(Cl)c(C)nn1C`, the “% Inhibition @ 10 uM” value was 2.45%. In the case of `Cc1cc(C)c2c(NC(=O)CN3CCCCC3)csc2n1`, the “% Inhibition @ 10 uM” value is reported as -2.05%. In the case of `O=c1[nH]c(=O)n(Cc2ccccc2)c2c1C(C(F)(F)F)(C(F)(F)F)NC(Cc1ccccc1)=N2`, the “% Inhibition @ 10 uM” value is reported as -3.39%. `CC1CCN(C(=O)Cn2cc(C(=O)C3CCCCC3)c3ccccc32)CC1` was tested, and the “% Inhibition @ 10 uM” value was -1.33%. `CC/C(C)=C(\C#N)C(=O)Nc1ccc(Cl)cc1` was tested, and the “% Inhibition @ 10 uM” value was 1.08%. `CC1=C(C(=O)OCc2ccccc2)C(c2ccccc2C)C(C#N)=C(N)O1` (stereo not shown) was tested, and the “% Inhibition @ 10 uM” value was -5.6%. For `CCCn1c(=O)c2sccc2n2c(CCCC(=O)NCc3ccc(F)cc3)nnc12`, the “% Inhibition @ 10 uM” value was -4.17%. In the case of `COc1ccccc1C1CC(c2ccccc2)=NN1c1ccccc1` (stereo not shown), the “% Inhibition @ 10 uM” value is reported as -4.85%. `COc1ccc(Cl)cc1NC(=O)c1ccc(N(C)S(C)(=O)=O)cc1` was tested, and the “% Inhibition @ 10 uM” value was 2.48%. With `CCCCNc1nc2ccccc2c2nc(CCn3c(C)nc4ccccc43)nn12` the “% Inhibition @ 10 uM” value was -5.33%. `CCC(CC)c1nn2c(=O)cc(CSc3n[nH]c(N)n3)nc2s1` was tested, and the “% Inhibition @ 10 uM” value was -3.95%. With `CCOC(=O)N1CCN(C(=O)CN(c2cc(Cl)ccc2C)S(C)(=O)=O)CC1` the “% Inhibition @ 10 uM” value was -0.0619%. `Cc1ccccc1CN(c1ccc(C(=O)NC2CC2)cc1)S(C)(=O)=O` was tested, and the “% Inhibition @ 10 uM” value was -10%. For `Cc1nc2nc(NC(=O)c3ccncc3)nn2c(C)c1Cl`, the “% Inhibition @ 10 uM” value was -3.08%. With `CC1=C(C(=O)Nc2cccc(C)c2C)C(c2ccc(Cl)cc2)NC(=O)N1` (stereo not shown) the “% Inhibition @ 10 uM” value was -2.6%. For `COc1ccccc1N1C(=O)c2ccc(C(=O)NCc3ccc4c(c3)OCO4)cc2C1=O`, the “% Inhibition @ 10 uM” value was -2.22%. `Cc1[nH]c(-c2ccc(F)cc2)cc1C(=O)N1CCCCC1` was tested, and the “% Inhibition @ 10 uM” value was -0.361%. In the case of `CN(Cc1ccccc1)C(=O)Cn1cc(S(=O)(=O)Cc2cccc(Cl)c2)c2ccccc21`, the “% Inhibition @ 10 uM” value is reported as -1.6%. For `CCN(CC)c1ccc(-c2ccc3ccccc3n2)cc1`, the “% Inhibition @ 10 uM” value was 1.74%. With `CCNc1nc(NC(C)C)nc(NS(=O)(=O)c2ccc(C)cc2)n1` the “% Inhibition @ 10 uM” value was 2.94%. `Cc1ccc(Sc2c(C)nn(C(=O)Cc3ccccc3)c2C)cc1` was tested, and the “% Inhibition @ 10 uM” value was 1.63%. For `c1cc(CNc2ccc3c(c2)CCC3)ccn1`, the “% Inhibition @ 10 uM” value was -4.04%. With `CN1C(=O)c2ccccc2C(C(=O)NCc2ccc3c(c2)OCO3)C1c1c[nH]c2ccccc12` (stereo not shown) the “% Inhibition @ 10 uM” value was -6.57%. In the case of `Cc1cc(C)c2c(N)c(C(=O)N3CCC(C)CC3)sc2n1`, the “% Inhibition @ 10 uM” value is reported as 8.18%. `OCC1OC(Nc2ccc(-c3ccc(NC4OC(CO)C(O)C(O)C4O)cc3)cc2)C(O)C(O)C1O` (stereo not shown) was tested, and the “% Inhibition @ 10 uM” value was 1.42%. For `O=C(c1ccccc1)c1ccc2nc(N3CCCCC3)c3nncn3c2c1`, the “% Inhibition @ 10 uM” value was 1.3%. In the case of `CC(C)NC(=O)c1cnn2c(C(F)(F)F)cc(-c3ccc(F)cc3)nc12`, the “% Inhibition @ 10 uM” value is reported as 0.224%. With `CCc1ccccc1N1C(=O)CC(N2CCc3ccccc32)C1=O` (stereo not shown) the “% Inhibition @ 10 uM” value was 3.91%. With `CCC1(C)CC(=O)c2c(ccc3oc(C(=O)NCCc4ccc(OC)c(OC)c4)c(C)c23)O1` (stereo not shown) the “% Inhibition @ 10 uM” value was -3.96%. For `CCC(CC)C(=O)Nc1ccc(S(=O)(=O)Nc2nccs2)cc1`, the “% Inhibition @ 10 uM” value was 0.0265%. With `C=Cc1ccc(Cn2c(C)c(CNCCCc3ccccc3)c(C(=O)O)c2C)cc1` the “% Inhibition @ 10 uM” value was 2.99%. With `CCc1ccc(C(=O)c2cnc3cc4c(cc3c2N2CCN(CC)CC2)OCO4)cc1` the “% Inhibition @ 10 uM” value was -4.86%. With `CCCCc1n[nH]c(SCc2nc(O)c3ccccc3n2)n1` the “% Inhibition @ 10 uM” value was 1.32%. For `CCOc1ccc(C2c3c(-c4ccccc4O)n[nH]c3C(=O)N2CCCO)cc1` (stereo not shown), the “% Inhibition @ 10 uM” value was 5.17%. In the case of `CCN(CC)CCN(CC)Cc1ccccc1Br`, the “% Inhibition @ 10 uM” value is reported as -7.93%. With `CN(Cc1ccccc1)C(=O)c1oc(=O)c2ccccc2c1-c1ccccc1` the “% Inhibition @ 10 uM” value was -5.22%. For `OCc1nc2ccccc2n1Cc1ccccc1`, the “% Inhibition @ 10 uM” value was -3.35%. For `CCC(=O)N1c2ccccc2N=C2CC(C)(C)CC(O)=C2C1c1ccccc1OC` (stereo not shown), the “% Inhibition @ 10 uM” value was 32%. `Cc1nc2ccccc2c2nc3ccccc3n12` was tested, and the “% Inhibition @ 10 uM” value was -4.7%. With `O=C(NCc1ccc(F)cc1)C1CCCN(S(=O)(=O)c2cccnc2)C1` (stereo not shown) the “% Inhibition @ 10 uM” value was 4.01%. With `COc1ccccc1-c1nc(COc2cc(C)c(Cl)c(C)c2)no1` the “% Inhibition @ 10 uM” value was 5.54%. `O=c1[nH]c2c(c(=O)n1C1CCCCC1)CCC2` was tested, and the “% Inhibition @ 10 uM” value was 5.08%. With `CCOc1cc(C2C(C(=O)OC)=CN(C)C=C2C(=O)OC)cc(Br)c1O` the “% Inhibition @ 10 uM” value was 3.45%. In the case of `CC(O)CN(CC(C)O)CC1CC2C=CC1C2` (stereo not shown), the “% Inhibition @ 10 uM” value is reported as -4.14%. With `N#CCNC(=O)[C@H](Cc1cccc2ccccc12)NC(=O)c1ccccc1` the “% Inhibition @ 10 uM” value was -5.21%. `C1CN(c2nc(N3CCOCC3)nc(N3CCOCC3)n2)CCO1` was tested, and the “% Inhibition @ 10 uM” value was -4.35%. In the case of `COc1cc(CNC(=O)c2ccc(Br)o2)cc(OC)c1OC`, the “% Inhibition @ 10 uM” value is reported as -3.21%. For `Cc1ccc(S(=O)(=O)c2nnn(-c3cccc(C)c3)c2N)cc1`, the “% Inhibition @ 10 uM” value was -1.71%. For `N#Cc1c(N)nc2c(c1-c1ccccc1F)CCCCC2`, the “% Inhibition @ 10 uM” value was -2.39%. With `CN1CCCN(Cc2ccoc2)CC1` the “% Inhibition @ 10 uM” value was -0.828%. For `CC1CC(C)CN(CCCNC(=O)c2ccc3nc(N4CCCCC4)sc3c2)C1` (stereo not shown), the “% Inhibition @ 10 uM” value was 0.828%. `Fc1cccc(Cl)c1CNc1ccc(CNc2nc[nH]n2)cc1` was tested, and the “% Inhibition @ 10 uM” value was -1.43%. For `N#CCNC(=O)[C@H](CC1CCCCC1)OC(=O)N1CCCC1`, the “% Inhibition @ 10 uM” value was -3.48%. For `CCCCOc1ccc(C(=O)Nc2c3c(nn2-c2ccc(OC)cc2)CS(=O)(=O)C3)cc1`, the “% Inhibition @ 10 uM” value was -0.657%. `O=C(O)C1=NN(c2ccc(S(=O)(=O)O)cc2)C(=O)C1` was tested, and the “% Inhibition @ 10 uM” value was -2.59%. With `CCCc1nc2nc(C)c(NS(=O)(=O)c3cccc(C#N)c3)c(O)n2n1` the “% Inhibition @ 10 uM” value was 10.4%. With `Cc1ccccc1C(=O)c1c(O)c2ccccc2n(C)c1=O` the “% Inhibition @ 10 uM” value was 5.63%. `COC(=O)c1cc(-c2ccc(C)cc2)on1` was tested, and the “% Inhibition @ 10 uM” value was 3.87%. With `O=C(NCC(c1ccccc1)c1ccccc1)Nc1cccc2ccccc12` the “% Inhibition @ 10 uM” value was -0.239%. With `CN(C)CCCN(C(=O)c1ccc(Br)s1)c1nc2ccc(Cl)cc2s1` the “% Inhibition @ 10 uM” value was -4.05%. With `CCOC(=O)N1CCN(C(=O)CCc2c(C)nc3c(c(C)nn3-c3ccc(C)c(C)c3)c2C)CC1` the “% Inhibition @ 10 uM” value was -0.465%.
